These results are taken from PubChem BioAssay AID1745853 (National Center for Advancing Translational Sciences (NCATS), 2022).

Some of the results follow. Shown are side measurements of this screen, not its main read-out; they come without a call.

Assay in all cases: Primary Screen for Target Class Profiling of Small Molecule Inhibitors of Methyltransferases
Experiment [1] addresses Glycine N-methyltransferase (Homo sapiens) (UniProt Q14749). The following applies: purified enzyme, MTase-Glo SAH luminescence; measured here: GNMT inhibition; at 40 µM; stronger effect = lower value. A digest of the protocol: (§1)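 Each enzyme was reacted with SAM and its substrate, with compounds tested once at 40 uM; SAH formed was read by MTase-Glo luminescence.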
For experiment [2], the target named is Guanidinoacetate N-methyltransferase (Homo sapiens) (UniProt Q14353). Particulars: purified enzyme, MTase-Glo SAH luminescence; measured here: GAMT inhibition; at 40 µM; stronger effect = lower value. A digest of the protocol:
as §1

For experiment [3], the target named is Histamine N-methyltransferase (Homo sapiens) (UniProt P50135). Particulars: purified enzyme, MTase-Glo SAH luminescence; measured here: HNMT inhibition; at 40 µM; stronger effect = lower value. An outline of the steps:
as §1

In experiment [4] the target is Nicotinamide N-methyltransferase (Homo sapiens) (UniProt P40261). The following applies: purified enzyme, MTase-Glo SAH luminescence; measured here: NNMT inhibition; at 40 µM; stronger effect = lower value. An outline of the steps: as §1
The target in experiment [5] is Phenylethanolamine N-methyltransferase (Homo sapiens) (UniProt P11086). Particulars: purified enzyme, MTase-Glo SAH luminescence; measured here: PNMT inhibition; at 40 µM; stronger effect = lower value. An outline of the steps: as §1
On the % scale 0 is the no-effect control and ±100 the full control effect.

Regarding `CCOC(=O)c1cc2n(n1)CC(C)(C(=O)NCCC(C)C)N(Cc1ccc(OC(C)C)cc1)C2=O` (stereo not given), the activity change, negative = inhibition was 3.93% in experiment [1]; 0% in experiment [2]; 7.9% in experiment [3]; 10.5% in experiment [4]; 2.53% in experiment [5].

`CC(C)(C)CC(C)(C)c1ccc(OCCOCC[N+](C)(C)Cc2ccccc2)cc1`: the activity change, negative = inhibition in experiment [1] was -8.71%; in experiment [2] it was 7.12%; in experiment [3], -49.7%; in experiment [4], -65.7%; in experiment [5], -6.47%.

On to `C[C@@H](c1ccccc1)N1C(=O)[C@@H]2CN(C(=O)CC3(CC(=O)O)CCCC3)CCN2C1=O`, for which the activity change, negative = inhibition in experiment [1] is -6.23%; in experiment [2], -4.55%; in experiment [3], -1.8%; in experiment [4], -12.4%; in experiment [5], -5.06%.

With `COc1ccc(CCC(=O)c2c(O)cc(O[C@@H]3O[C@H](CO)[C@@H](O)[C@H](O)[C@H]3O[C@@H]3O[C@@H](C)[C@H](O)[C@@H](O)[C@H]3O)cc2O)cc1O`, the activity change, negative = inhibition in experiment [1] was 0.78%; in experiment [2], 8.1%; in experiment [3] it was 5.21%; in experiment [4], -8.25%; in experiment [5] it was -2.49%.

For `O=C(c1ccco1)N1CCCC1c1nc(C2CCOCC2)no1` (stereo not given), the activity change, negative = inhibition in experiment [1] is -4.81%; in experiment [2] it was -7.2%; in experiment [3], -2.7%; in experiment [4], -8.34%; in experiment [5], -6.12%.

On to `Cc1cccc(N2CCN(S(=O)(=O)c3cc4c(cc3Br)n(C)c(=O)n4C)CC2)c1C`, for which the activity change, negative = inhibition in experiment [1] was -4.42%; in experiment [2] it was 4.89%; in experiment [3] it was 0.341%; in experiment [4], 0.285%; in experiment [5] it was -1.92%.

On to `Nc1nc(NCC2CCC(CNS(=O)(=O)c3cccc4ccccc34)CC2)nc2ccccc12` (stereo not given), for which the activity change, negative = inhibition in experiment [1] is -9.8%; in experiment [2], -18.2%; in experiment [3], -61.9%; in experiment [4] it was -51.8%; in experiment [5], -33%.

Consider `CC(=O)Nc1ccc(Cl)c(C(=O)N(C)Cc2sccc2C)c1`, for which the activity change, negative = inhibition in experiment [1] is -8.29%; in experiment [2] it was -8.76%; in experiment [3], -5.44%; in experiment [4], -19.1%; in experiment [5] it was -18.1%.

In the case of `CC1CCN(S(=O)(=O)c2ccc3c(ccn3CC(=O)NC3CCCCC3)c2)CC1`, the activity change, negative = inhibition is 4.9% in experiment [1]; 5.6% in experiment [2]; 5.95% in experiment [3]; 5.46% in experiment [4]; 4.12% in experiment [5].

Regarding `O=C1C[C@]23C=CCN4CCC5c6cc7c(cc6N1[C@@]5(CC2)C43)OCO7` (stereo not given in full), the activity change, negative = inhibition in experiment [1] is -0.636%; in experiment [2] it was -6.55%; in experiment [3], 7.75%; in experiment [4], -41.5%; in experiment [5], -7.95%.

Take `CCC(C)NC(=O)c1ccc2c(=O)n(C)c3nn(Cc4cc(C)ccc4C)c(=O)n3c2c1` (stereo not given): the activity change, negative = inhibition is 3.72% in experiment [1]; 5.68% in experiment [2]; 5.77% in experiment [3]; -5.43% in experiment [4]; 0.934% in experiment [5].

Consider `Cc1cccc(N2C(=O)c3ccccc3CC2(C)C(=O)NCc2ccccc2)c1` (stereo not given), for which the activity change, negative = inhibition in experiment [1] was -2.33%; in experiment [2], 8.24%; in experiment [3] it was -5.3%; in experiment [4], -4.87%; in experiment [5], -2.69%.

Turning to `O=C1NC(Cc2c[nH]c3ccccc23)C(=O)NC1Cc1c[nH]c2ccccc12` (stereo not given), the activity change, negative = inhibition was 0% in experiment [1]; 5.17% in experiment [2]; 5.83% in experiment [3]; -9.92% in experiment [4]; 6.94% in experiment [5].

Regarding `OC[C@@]1(O)CO[C@@H](OC[C@H]2O[C@@H](Oc3c[nH]c4ccccc34)[C@H](O)[C@@H](O)[C@@H]2O)[C@@H]1O`, the activity change, negative = inhibition in experiment [1] is -2.07%; in experiment [2] it was -19.7%; in experiment [3], 4.84%; in experiment [4], -36.4%; in experiment [5] it was -13.1%.

Consider `COC(=O)c1cc2n(n1)CC(C)(C(=O)NC1CCCCCC1)N(c1ccc(C(C)C)cc1)C2=O` (stereo not given), for which the activity change, negative = inhibition is -3.33% in experiment [1]; -0.523% in experiment [2]; -3.4% in experiment [3]; -2.63% in experiment [4]; 0.077% in experiment [5].

Take `O=C(Cn1ccc2cc(S(=O)(=O)N3CCCCC3)ccc21)NCCc1ccc(Cl)cc1`: the activity change, negative = inhibition is 1.24% in experiment [1]; 2.38% in experiment [2]; 2.58% in experiment [3]; -7.5% in experiment [4]; -1.31% in experiment [5].

Take `COc1ccc(C(=O)N[C@@H]2CCC[C@@H]2C(=O)N2CCSCC2)cc1`: the activity change, negative = inhibition was -0.922% in experiment [1]; 5.7% in experiment [2]; 3.43% in experiment [3]; -0.939% in experiment [4]; 14.1% in experiment [5].

As for `CCC(C)NC(=O)Cn1nc2n(C3CC3)c(=O)c3ccc(C(=O)NC(C)CC)cc3n2c1=O` (stereo not given), the activity change, negative = inhibition in experiment [1] amounted to 9.89%; in experiment [2], 0%; in experiment [3], 1.77%; in experiment [4], 10.4%; in experiment [5], 11.4%.

As to `CN1CCN(c2nc3c(c(=O)[nH]2)CCN(Cc2ccc4[nH]ccc4c2)CC3)CC1`, the activity change, negative = inhibition in experiment [1] is -13.6%; in experiment [2], -6.43%; in experiment [3] it was -7.77%; in experiment [4] it was -15.4%; in experiment [5], -16.2%.

Regarding `COCCOC1CCN(C(=O)NCc2ccc(C)cc2)CC1`, the activity change, negative = inhibition in experiment [1] is -1.37%; in experiment [2] it was -7.48%; in experiment [3], -0.84%; in experiment [4] it was -6.51%; in experiment [5] it was -2.86%.

Take `COc1ccc(-c2cc3nccn3c(Nc3ncccc3C(N)=O)n2)cc1OC`: the activity change, negative = inhibition in experiment [1] was -4.5%; in experiment [2], -0.496%; in experiment [3], 7.1%; in experiment [4] it was -19.5%; in experiment [5], 4.33%.

`CCOC(=O)c1cc2n(n1)CC(C)(C(=O)NCc1ccccc1)N(Cc1cccc(OC)c1OC)C2=O` (stereo not given): the activity change, negative = inhibition in experiment [1] is -1.32%; in experiment [2], 3.33%; in experiment [3], 5.6%; in experiment [4], -2.09%; in experiment [5] it was -1.97%.

In the case of `Cc1nn(-c2ccccc2)c2c1C(C1CC1)N(C1CCN([S+](=O)([O-])c3ccccc3)C1)C2=O` (stereo not given), the activity change, negative = inhibition is -9.53% in experiment [1]; -10.6% in experiment [2]; -8.26% in experiment [3]; -13.4% in experiment [4]; -5.12% in experiment [5].

For the compound `Cc1ccc(NC(=O)N2Cc3c(sc4c3CCCC4)-n3cccc3C2c2ccccc2)cc1F` (stereo not given), the activity change, negative = inhibition in experiment [1] was -2.75%; in experiment [2], 0%; in experiment [3] it was -0.122%; in experiment [4], 6.05%; in experiment [5] it was 5.33%.

`COc1ccc(CCC(=O)Nc2nc3ccc(Cl)cc3s2)cc1OC`: the activity change, negative = inhibition in experiment [1] is -19.9%; in experiment [2], 0.268%; in experiment [3], 9.88%; in experiment [4], -15.5%; in experiment [5] it was 3.8%.

For `COc1ccc(CCn2nnnc2C2(c3ccc(C)cc3)CC2)cc1`, the activity change, negative = inhibition in experiment [1] is 1.46%; in experiment [2] it was 14.7%; in experiment [3], 11.1%; in experiment [4], -11.2%; in experiment [5], 0.176%.

With `CNC(=O)NCCc1ncc(C)n1C1CCCCCCC1`, the activity change, negative = inhibition in experiment [1] is -0.488%; in experiment [2], -1.59%; in experiment [3], -57%; in experiment [4], -3.51%; in experiment [5], 0.4%.

Take `O=C(NCc1ccccn1)c1ccc2c(=O)nc3c(-c4ccc(F)cc4)n[nH]n3c2c1`: the activity change, negative = inhibition in experiment [1] is -15.3%; in experiment [2] it was 0%; in experiment [3], 1.67%; in experiment [4], 3.11%; in experiment [5], -2.85%.

For the compound `Cc1ccc(OCC(=O)N2CCCC(CN3CCCC3)CC2)cc1` (stereo not given), the activity change, negative = inhibition was -9.22% in experiment [1]; -2.91% in experiment [2]; -25.7% in experiment [3]; -5.04% in experiment [4]; -11.5% in experiment [5].
